# Laboratory results as given in the supplement of paper PMC8728848.
# The list shows a part of the results.
# B1: HPA (Helix pomatia), Q575S3 (protein)
# chain: MWAHLTGLLLICALSLSAAQRAQTGEIDCGSDSSWPKDPSDNPNRDNTREIVKHVTFSPQFCREPKVILSVTTLDAEHTKNLRYEARLKSVSPSGLSASCYSWHDGTIYRMKLSWLAVED
# Columns and labels:
# Experiment in all cases: glycan array binding signal (z-score within array); higher = stronger binding
# Settings in all cases: glycan notation: IUPAC condensed, linker removed
# [1] = molecular target: Fuc(a1-2)Gal(b1-4)GlcNAc(b1-2)Man(a1-3)[Fuc(a1-2)Gal(b1-4)GlcNAc(b1-2)Man(a1-6)]Man(b1-4)GlcNAc(b1-4)[Fuc(a1-6)]GlcNAc
# Summary of the method: (§1)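 The Consortium for Functional Glycomics database supplied 3228 glycan arrays, of which those lacking an available protein sequence were dropped. The binding signal, a within-array Z-score, was averaged across arrays of the same protein sequence and across linkers. Negative scores can be read as non-binding.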
# [2] = molecular target: Fuc(a1-2)Gal(b1-4)GlcNAc(b1-2)[Fuc(a1-2)Gal(b1-4)GlcNAc(b1-4)]Man(a1-3)[Fuc(a1-2)Gal(b1-4)GlcNAc(b1-2)Man(a1-6)]Man(b1-4)GlcNAc(b1-4)GlcNAc
# Summary of the method: as §1
# [3] = molecular target: Fuc(a1-2)Gal(b1-4)GlcNAc(b1-3)Gal(b1-4)GlcNAc
# Summary of the method: as §1
# [4] = molecular target: Fuc(a1-2)Gal(b1-4)GlcNAc(b1-3)Gal(b1-4)GlcNAc(b1-2)Man(a1-3)[Fuc(a1-2)Gal(b1-4)GlcNAc(b1-3)Gal(b1-4)GlcNAc(b1-2)Man(a1-6)]Man(b1-4)GlcNAc(b1-4)GlcNAc
# Summary of the method: as §1
# [5] = molecular target: Fuc(a1-2)Gal(b1-4)GlcNAc(b1-3)Gal(b1-4)GlcNAc(b1-3)Gal(b1-4)GlcNAc
# Summary of the method: as §1
# [6] = molecular target: Fuc(a1-2)Gal(b1-4)GlcNAc(b1-3)GalNAc
# Summary of the method: as §1
# [7] = molecular target: Fuc(a1-2)Gal(b1-4)GlcNAc(b1-3)[Fuc(a1-2)Gal(b1-4)GlcNAc(b1-6)]GalNAc
# Summary of the method: as §1
# [8] = molecular target: Fuc(a1-2)Gal(b1-4)GlcNAc(b1-3)[Fuc(a1-3)[Gal(b1-4)]GlcNAc(b1-6)]Gal(b1-4)Glc
# Summary of the method: as §1
# [9] = molecular target: Fuc(a1-2)Gal(b1-4)GlcNAc(b1-6)GalNAc
# Summary of the method: as §1
# [10] = molecular target: Fuc(a1-2)Gal(b1-4)GlcNAc6S
# Summary of the method: as §1
# [11] = molecular target: Fuc(a1-2)Gal(b1-4)[Fuc(a1-3)]GlcNAc
# Summary of the method: as §1
# [12] = molecular target: Fuc(a1-2)Gal(b1-4)[Fuc(a1-3)]GlcNAc(b1-2)Man(a1-3)[Fuc(a1-2)Gal(b1-4)[Fuc(a1-3)]GlcNAc(b1-2)Man(a1-6)]Man(b1-4)GlcNAc(b1-4)GlcNAc
# Summary of the method: as §1
# [13] = molecular target: Fuc(a1-2)Gal(b1-4)[Fuc(a1-3)]GlcNAc(b1-2)Man(a1-3)[Fuc(a1-2)Gal(b1-4)[Fuc(a1-3)]GlcNAc(b1-2)Man(a1-6)]Man(b1-4)GlcNAc(b1-4)[Fuc(a1-6)]GlcNAc
# Summary of the method: as §1
# [14] = molecular target: Fuc(a1-2)Gal(b1-4)[Fuc(a1-3)]GlcNAc(b1-2)[Fuc(a1-2)Gal(b1-4)[Fuc(a1-3)]GlcNAc(b1-4)]Man(a1-3)[Fuc(a1-2)Gal(b1-4)[Fuc(a1-3)]GlcNAc(b1-2)Man(a1-6)]Man(b1-4)GlcNAc(b1-4)GlcNAc
# Summary of the method: as §1
# [15] = molecular target: Fuc(a1-2)Gal(b1-4)[Fuc(a1-3)]GlcNAc(b1-3)Gal(b1-4)[Fuc(a1-3)]GlcNAc
# Summary of the method: as §1
# [16] = molecular target: Fuc(a1-2)Gal(b1-4)[Fuc(a1-3)]GlcNAc(b1-3)Gal(b1-4)[Fuc(a1-3)]GlcNAc(b1-3)Gal(b1-4)[Fuc(a1-3)]GlcNAc
# Summary of the method: as §1
# [17] = molecular target: Fuc(a1-2)Gal(b1-4)[Fuc(a1-3)]GlcNAc(b1-3)GalNAc
# Summary of the method: as §1
# [18] = molecular target: Fuc(a1-2)Gal(b1-4)[Fuc(a1-3)]GlcNAc(b1-3)[Neu5Ac(a2-6)Gal(b1-4)GlcNAc(b1-6)]Gal(b1-4)Glc
# Summary of the method: as §1
# [19] = molecular target: Fuc(a1-2)Gal3S(b1-4)GlcNAc
# Summary of the method: as §1
# [20] = molecular target: Fuc(a1-2)Gal6S(b1-3)GlcNAc
# Summary of the method: as §1
# [21] = molecular target: Fuc(a1-2)Gal6S(b1-3)GlcNAc6S
# Summary of the method: as §1
# Fuc(a1-2)Gal6S(b1-4)Glc = molecular target: Fuc(a1-2)Gal6S(b1-4)Glc
# Summary of the method: as §1
# [22] = molecular target: Fuc(a1-2)Gal6S(b1-4)Glc6S
# Summary of the method: as §1
# [23] = molecular target: Fuc(a1-2)Gal6S(b1-4)GlcNAc
# Summary of the method: as §1
# Fuc(a1-2)[Gal(a1-3)]Gal = molecular target: Fuc(a1-2)[Gal(a1-3)]Gal
# Summary of the method: as §1
# [24] = molecular target: Fuc(a1-2)[Gal(a1-3)]Gal(b1-3)GalNAc
# Summary of the method: as §1
# [25] = molecular target: Fuc(a1-2)[Gal(a1-3)]Gal(b1-3)GalNAc(b1-3)Gal(a1-4)Gal(b1-4)Glc
# Summary of the method: as §1
# [26] = molecular target: Fuc(a1-2)[Gal(a1-3)]Gal(b1-3)GlcNAc
# Summary of the method: as §1
# [27] = molecular target: Fuc(a1-2)[Gal(a1-3)]Gal(b1-3)GlcNAc(b1-2)Man(a1-3)[Fuc(a1-2)[Gal(a1-3)]Gal(b1-3)GlcNAc(b1-2)Man(a1-6)]Man(b1-4)GlcNAc(b1-4)GlcNAc
# Summary of the method: as §1
# [28] = molecular target: Fuc(a1-2)[Gal(a1-3)]Gal(b1-3)GlcNAc(b1-2)Man(a1-3)[Fuc(a1-2)[Gal(a1-3)]Gal(b1-3)GlcNAc(b1-2)Man(a1-6)]Man(b1-4)GlcNAc(b1-4)[Fuc(a1-6)]GlcNAc
# Summary of the method: as §1
# [29] = molecular target: Fuc(a1-2)[Gal(a1-3)]Gal(b1-3)GlcNAc(b1-3)GalNAc
# Summary of the method: as §1
# [30] = molecular target: Fuc(a1-2)[Gal(a1-3)]Gal(b1-3)GlcNAc(b1-6)GalNAc
# Summary of the method: as §1
# [31] = molecular target: Fuc(a1-2)[Gal(a1-3)]Gal(b1-4)Glc
# Summary of the method: as §1
# [32] = molecular target: Fuc(a1-2)[Gal(a1-3)]Gal(b1-4)GlcNAc
# Summary of the method: as §1
# [33] = molecular target: Fuc(a1-2)[Gal(a1-3)]Gal(b1-4)GlcNAc(b1-2)Man
# Summary of the method: as §1
# [34] = molecular target: Fuc(a1-2)[Gal(a1-3)]Gal(b1-4)GlcNAc(b1-2)Man(a1-3)[Fuc(a1-2)[Gal(a1-3)]Gal(b1-4)GlcNAc(b1-2)Man(a1-6)]Man(b1-4)GlcNAc(b1-4)GlcNAc
# Summary of the method: as §1
# [35] = molecular target: Fuc(a1-2)[Gal(a1-3)]Gal(b1-4)GlcNAc(b1-2)Man(a1-3)[Fuc(a1-2)[Gal(a1-3)]Gal(b1-4)GlcNAc(b1-2)Man(a1-6)]Man(b1-4)GlcNAc(b1-4)[Fuc(a1-6)]GlcNAc
# Summary of the method: as §1
# [36] = molecular target: Fuc(a1-2)[Gal(a1-3)]Gal(b1-4)GlcNAc(b1-3)GalNAc
# Summary of the method: as §1
# [37] = molecular target: Fuc(a1-2)[Gal(a1-3)]Gal(b1-4)GlcNAc(b1-3)[Fuc(a1-2)[Gal(a1-3)]Gal(b1-4)GlcNAc(b1-6)]GalNAc
# Summary of the method: as §1
# [38] = molecular target: Fuc(a1-2)[Gal(a1-3)]Gal(b1-4)GlcNAc(b1-6)GalNAc
# Summary of the method: as §1
# [39] = molecular target: Fuc(a1-2)[Gal(a1-3)]Gal(b1-4)[Fuc(a1-3)]Glc
# Summary of the method: as §1
# [40] = molecular target: Fuc(a1-2)[Gal(a1-3)]Gal(b1-4)[Fuc(a1-3)]GlcNAc
# Summary of the method: as §1
# [41] = molecular target: Fuc(a1-2)[Gal(a1-3)]Gal(b1-4)[Fuc(a1-3)]GlcNAc(b1-3)GalNAc
# Summary of the method: as §1
# [42] = molecular target: Fuc(a1-2)[Gal(a1-4)]Gal(b1-4)GlcNAc
# Summary of the method: as §1
# [43] = molecular target: Fuc(a1-2)[GalNAc(a1-3)]Gal
# Summary of the method: as §1
binder,measurement,setting,value
B1,glycan array binding signal (z-score),[1],-0.229
same,glycan array binding signal (z-score),[2],-0.235
same,glycan array binding signal (z-score),[3],-0.268
same,glycan array binding signal (z-score),[4],-0.243
same,glycan array binding signal (z-score),[5],-0.272
same,glycan array binding signal (z-score),[6],-0.244
same,glycan array binding signal (z-score),[7],-0.251
same,glycan array binding signal (z-score),[8],-0.256
same,glycan array binding signal (z-score),[9],-0.251
same,glycan array binding signal (z-score),[10],-0.26
same,glycan array binding signal (z-score),[11],-0.264
same,glycan array binding signal (z-score),[12],-0.221
same,glycan array binding signal (z-score),[13],-0.245
same,glycan array binding signal (z-score),[14],-0.224
same,glycan array binding signal (z-score),[15],-0.27
same,glycan array binding signal (z-score),[16],-0.262
same,glycan array binding signal (z-score),[17],-0.228
same,glycan array binding signal (z-score),[18],-0.254
same,glycan array binding signal (z-score),[19],-0.257
same,glycan array binding signal (z-score),[20],-0.257
same,glycan array binding signal (z-score),[21],-0.23
same,glycan array binding signal (z-score),Fuc(a1-2)Gal6S(b1-4)Glc,-0.253
same,glycan array binding signal (z-score),[22],-0.255
same,glycan array binding signal (z-score),[23],-0.266
same,glycan array binding signal (z-score),Fuc(a1-2)[Gal(a1-3)]Gal,-0.264
same,glycan array binding signal (z-score),[24],-0.25
same,glycan array binding signal (z-score),[25],-0.259
same,glycan array binding signal (z-score),[26],-0.24
same,glycan array binding signal (z-score),[27],-0.26
same,glycan array binding signal (z-score),[28],-0.24
same,glycan array binding signal (z-score),[29],-0.247
same,glycan array binding signal (z-score),[30],-0.242
same,glycan array binding signal (z-score),[31],-0.255
same,glycan array binding signal (z-score),[32],-0.268
same,glycan array binding signal (z-score),[33],-0.247
same,glycan array binding signal (z-score),[34],-0.269
same,glycan array binding signal (z-score),[35],-0.244
same,glycan array binding signal (z-score),[36],-0.243
same,glycan array binding signal (z-score),[37],-0.247
same,glycan array binding signal (z-score),[38],-0.246
same,glycan array binding signal (z-score),[39],-0.247
same,glycan array binding signal (z-score),[40],-0.251
same,glycan array binding signal (z-score),[41],-0.244
same,glycan array binding signal (z-score),[42],-0.081
same,glycan array binding signal (z-score),[43],3.92
